The values that follow come from the supplement of paper PMC4604168 (melanoma cell lines).

The other results are listed elsewhere or left out. Many values rest on one well or one pass, so single values are uncertain.
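Further: cell number obtained by counting DAPI-stained nuclei in high-throughput microscope images with image analysis software, screen run in 1,536-well plates.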

This experiment deals with WM3526. The experiment is described as follows: cell count relative to DMSO control; melanoma cells; higher = more viable cells. The following applies: library dose: low library concentration; 72 h.
The molecule `CCc1ccc(CCOc2ccc(CC3SC(=O)NC3=O)cc2)nc1` (stereo unspecified) [pioglitazone] + Cc1cc([N+](=O)[O-])ccc1NS(=O)(=O)c1cc(Cl)ccc1Cl [FH535] (first compound 2 µM, partner dose 1 µM) displayed a cell count of 97.1%.
As for `CCc1ccc(CCOc2ccc(CC3SC(=O)NC3=O)cc2)nc1` (stereo unspecified) [pioglitazone] + COC(=O)c1sccc1S(=O)(=O)Nc1ccc(Nc2ccccc2)cc1OC [GSK0660] (first compound 2 µM, partner dose 1 µM), the cell count is 103%.
The molecule `COc1cc2c(Oc3ccc4[nH]c(C)cc4c3F)ncnc2cc1OCCCN1CCCC1` [cediranib] + COc1ccc(COc2ccc(Cc3cnc(N)nc3N)cc2OC)cc1 [GW2580] (first compound 0.4 µM, partner dose 1 µM) gave a cell count of 94.7%.
In turn, `Cc1ccc(NC(=O)c2cccc(N(C)C)c2)cc1NC(=O)c1ccc(O)cc1` + COc1ccc2c(c1)CCC1C2CCC2(C)C(NCCCCCCN3C(=O)C=CC3=O)CCC12 [U73122] (first compound 2 µM, partner dose 0.4 µM) had a cell count of 68.7%.
The value for `CN(NC(=O)CC(=O)NN(C)C(=S)c1ccccc1)C(=S)c1ccccc1` + CCc1ccc(CCOc2ccc(CC3SC(=O)NC3=O)cc2)nc1 [pioglitazone] (first compound 0.006 µM, partner dose 2 µM) was 120%; that for `CN(NC(=O)CC(=O)NN(C)C(=S)c1ccccc1)C(=S)c1ccccc1` + Oc1nc(-c2ccc(C(F)(F)F)cc2)nc2c1CSCC2 [XAV939] (first compound 0.006 µM, partner dose 2 µM) was 86.1%.
